Values joined by “and” are separate entries in the source; they are usually repeats but may differ in a detail not shown here. Equal values may be shown once. The inconclusive results got no clear call from the source; some entries with a clear call stand among them for comparison. Potencies beside an inconclusive call are fits to weak or partial responses and may not hold up. Active and inactive are the calls of the source. Calls follow the shape of the dose curve; as a rule, active = well fitted curve in the direction sought with a large enough effect; inconclusive = small, poorly fitted or top-dose-only effect, or another doubt; inactive = no such curve, though single readings can be large; an effect the other way counts as inactive or inconclusive.
What was measured:
[1] = Viability qHTS for spleen associated tyrosine kinase inhibitor (SYKi) drug resistant MV4-11 cells (AID 1963824); also: nearly all actives have a fitted effect of over 35% in size
Procedure, shortened: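 SYK-inhibitor-resistant MV4-11 AML cells were seeded at 500 per well onto compound and cultured 72 hours (37 °C, 5% CO2). CellTiter-Glo was then added, and after 10 min at room temperature, luminescence gave viability.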

[2] = Quantitative highthroughput screen to assess conditional lethalithy of NOMO1 cells grown in RPMI1640 with untreated serum (RPMI+s) (AID 1963876); conditions: NOMO1 AML cells in RPMI+serum, CellTiter-Glo viability, 48 h; viability: at 45.8 µM (top of the series); also: nearly all actives have a fitted effect of over 35% in size;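 as to Viability: 100% = DMSO wells and 0% = empty wells without cells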
Procedure, shortened: (§1)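 Each medium arm—HPLM with 10% dialyzed FBS, or RPMI1640 with 5 mM glucose and 10% untreated or dialyzed FBS—was screened against an 11-point, 3-fold compound titration for 48 h at 37 °C, with CellTiter-Glo luminescence as endpoint.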

[3] = Quantitative highthroughput screen to assess conditional lethalithy of NOMO1 cells grown in RPMI1640 with dialyzed fetal bovine serum (RPMI+ds) (AID 1963877); also: nearly all actives have a fitted effect of over 30% in size;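 as to Viability: 100% = DMSO control wells and 0% = empty wells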
Procedure, shortened: as §1

[4] = Quantitative highthroughput screen to assess conditional lethalithy of NOMO1 cells grown in Human Plasma-Like Medium with dialyzed fetal bovine serum (HPLM+ds) (AID 1963878); conditions: NOMO1 AML cells in HPLM+ds, CellTiter-Glo viability, 48 h; viability: at 45.8 µM (top of the series); also: nearly all actives have a fitted effect of over 35% in size
Procedure, shortened: as §1

[5] = Quantitative highthroughput screen to assess conditional lethalithy of P12 Ichikawa cells grown in Human Plasma-Like Medium with dialyzed fetal bovine serum (HPLM+ds) (AID 1963879); conditions: Potency: viability; also: nearly all actives have a fitted effect of over 35% in size
Procedure, shortened: as §1

[6] = Quantitative highthroughput screen to assess conditional lethalithy of SEM cells grown in Human Plasma-Like Medium with dialyzed fetal bovine serum (HPLM+ds) (AID 1963882); also: nearly all actives have a fitted effect of over 35% in size
Procedure, shortened: as §1

[7] = Quantitative highthroughput screen to assess conditional lethalithy of SEM cells grown in RPMI1640 with dialyzed fetal bovine serum (RPMI+ds) (AID 1963884); conditions: SEM B-ALL cells, RPMI+dialyzed FBS, CellTiter-Glo viability, 48 h; viability: at 45.8 µM (top of the series); also: nearly all actives have a fitted effect of over 35% in size;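 as to Viability: 100% = DMSO control wells and 0% = empty wells without cells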
Procedure, shortened: as §1

[8] = Quantitative highthroughput screen to assess conditional lethalithy of P12 Ichikawa cells grown in RPMI1640 with dialyzed fetal bovine serum (RPMI+ds) (AID 1963880); conditions: Potency: P12-Ichikawa viability; also: nearly all actives have a fitted effect of over 35% in size;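 as to Viability: 100% = DMSO wells and 0% = empty wells on each plate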
Procedure, shortened: as §1

[9] = Quantitative highthroughput screen to assess conditional lethalithy of SEM cells grown in RPMI1640 with unreated serum (RPMI+s) (AID 1963883); conditions: SEM B-ALL cells, CellTiter-Glo viability, 48 h; viability: at 45.8 µM (top of the series); also: nearly all actives have a fitted effect of over 35% in size;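 as to Viability: 100% = DMSO wells and 0% = empty wells without cells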
Procedure, shortened: as §1

[10] = Cellular viability qHTS for adrenocortical cancer (ACC) cell line SW-13 (AID 1963989); conditions: SW-13 ACC cells viability, CellTiter-Glo, 48 h; activity (max response): stronger effect = lower value; also: nearly all actives have a fitted effect of over 65% in size;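 as to activity (max response): cells grown in serum-free medium with ITS supplement; % is scaled to controls: 0 for no effect and ±100 for the full control effect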
Procedure, shortened: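 Luminescent ATP read-out (CellTiter-Glo, 20 min at room temperature) measured metabolically competent SW-13 cells after 48 h compound treatment. Final concentrations spanned up to 46 uM; bortezomib served as positive control.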

[11] = Quantitative highthroughput screen to assess conditional lethalithy of P12 Ichikawa cells grown in RPMI1640 with untreated serum (RPMI+s) (AID 1963881); conditions: Potency: viability; also: nearly all actives have a fitted effect of over 35% in size;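 as to Viability: 100% = DMSO wells and 0% = empty wells without cells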
Procedure, shortened: as §1

[12] = Cellular viability qHTS for adrenocortical cancer (ACC) cell line NCI-H295R (AID 1963990); conditions: CellTiter-Glo ATP luminescence, 48 h; activity change, negative = viability loss: at 46.1 µM (top of the series); also: nearly all actives have a fitted effect of over 60% in size;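 as to activity change, negative = viability loss: 0% = DMSO only wells and -100% = full killing with cytotoxic reference compound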
Procedure, shortened: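 IC50 and maximal efficacy derive from four-parameter logistic modelling of titration curves, with reads scaled between DMSO-only wells (0%) and doxorubicin hydrochloride (100% inhibition). Compounds spanned up to 46 uM over 48 h.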
Potency is read from the fitted curve at half-maximal effect; tags tell the direction and shape of the fitted curve.

CC(C)N(C[C@H]1O[C@@H](n2cnc3c(N)ncnc32)[C@H](O)[C@@H]1O)C1CC(CCc2nc3ccc(C(C)(C)C)cc3[nH]2)C1 (stereo partly drawn)
inconclusive: Potency [1] 3.26 µM [cytotoxic, partial curve] and 18.6 µM [cytotoxic, partial curve] | Potency [2] 29.5 µM [cytotoxic, single point] | Potency [3] 33.1 µM [cytotoxic, single point] | Potency [6] 33.1 µM [cytotoxic, single point]
active: Potency [4] 5.88 µM | Potency [5] 1.05 µM | Potency [7] 11.7 µM

O=C(/C=C/c1ccc(O)cc1)O[C@H]1[C@@H]2C=CO[C@@H](O[C@@H]3O[C@H](CO)[C@@H](O)[C@H](O)[C@H]3O)[C@@H]2[C@@]2(CO)O[C@@H]12
inactive: Potency [1]

CN(C)Cc1cccc(N=C(c2ccccc2)c2c(O)[nH]c3cc(C(=O)N(C)C)ccc23)c1
inconclusive: Potency [2] 16.6 µM [cytotoxic, partial curve] | Potency [3] 10.5 µM [cytotoxic, partial curve, poor fit] | Potency [4] 14.8 µM [cytotoxic, partial curve] | Potency [5] 23.5 µM [cytotoxic, partial curve] | Potency [8] 23.5 µM [cytotoxic, single point] | Potency [10] 35.5 µM [cytotoxic, partial curve, poor fit]
active: Potency [1] 7.42 µM | Potency [9] 7.43 µM | Potency [7] 10.5 µM

Nc1nc(N)c(N=O)c(OCC2CCCCC2)n1
active: Potency [1] 8.2 µM and 8.33 µM
inconclusive: Potency [2] 13.2 µM [cytotoxic, partial curve] | Potency [3] 16.6 µM [cytotoxic, partial curve] | Potency [4] 2.09 µM [cytotoxic, full curve] | Potency [5] 16.6 µM [cytotoxic, partial curve] | Potency [11] 3.72 µM [cytotoxic, full curve] | Potency [6] 2.64 µM [cytotoxic, full curve, poor fit] | Potency [9] 3.72 µM [cytotoxic, full curve] | Potency [7] 4.69 µM [cytotoxic, full curve] | Potency [10] 28.2 µM [cytotoxic, single point] | Potency [12] 14.1 µM [cytotoxic, partial curve]

COc1c(F)cccc1C(=O)N1C[C@@H](C)CC[C@H]1CNc1ccc(Br)cn1
active: Potency [1] 9.2 µM

O=C(O)c1cn(C2CC2)c2cc(N3CCNCC3)c(F)cc2c1=O
inconclusive: Potency [2] 16.6 µM [cytotoxic, partial curve] | Potency [3] 13.2 µM [cytotoxic, partial curve] | Potency [4] 4.69 µM [cytotoxic, full curve] | Potency [9] 3.32 µM [cytotoxic, full curve]
inactive: Potency [1]

Cc1cc([C@@H](C)Nc2ccccc2C(=O)O)c2nc(N3CCOCC3)cc(=O)n2c1
active: Potency [1] 7.08 µM and 5.25 µM | Potency [2] 13.6 µM | Potency [3] 12.1 µM | Potency [6] 13.6 µM
inconclusive: Potency [5] 34 µM [cytotoxic, partial curve] | Potency [8] 15.2 µM [cytotoxic, partial curve] | Potency [10] 25.1 µM [cytotoxic, partial curve, poor fit] | Potency [12] 17.8 µM [cytotoxic, partial curve]

C[C@@H](Oc1cc(-n2cnc3ccc(CN4CCN(C)CC4)cc32)sc1C(N)=O)c1ccccc1C(F)(F)F
active: Potency [1] 0.0105 µM | Potency [8] 0.0332 µM | Potency [11] 0.0332 µM | Potency [9] 0.0332 µM | Potency [10] 0.0501 µM
inconclusive: Potency [2] 0.0332 µM [cytotoxic, full curve] | Potency [3] 0.0296 µM [cytotoxic, full curve] | Potency [6] 0.0296 µM [cytotoxic, full curve] | Potency [7] 0.0332 µM [cytotoxic, full curve] | Potency [12] 1.12 µM [cytotoxic, partial curve, poor fit]

O=C(Nc1ccc(F)c(C(F)(F)F)c1)Nc1nnc(-c2ccncc2)s1
inactive: Potency [2] | Potency [3] | Potency [8] | Potency [6] | Potency [9] | Potency [7]
inconclusive: Potency [1] 0.651 µM [cytotoxic, full curve]

O=C(O)C(O)Cc1ccc(O)c(O)c1 (stereo not drawn)
active: Potency [3] 13.2 µM
inactive: Potency [2]
inconclusive: Potency [1] 48.1 µM [cytotoxic, partial curve, poor fit] | Potency [4] 13.2 µM [cytotoxic, partial curve, poor fit] | Potency [6] 0.264 µM [cytotoxic, partial curve, poor fit] | Potency [9] 18.7 µM [cytotoxic, partial curve, poor fit] | Potency [7] 0.332 µM [cytotoxic, single point]

CNCCCC12CCC(c3ccccc31)c1ccccc12
inconclusive: Potency [1] 29.9 µM [cytotoxic, single point] | Potency [2] 33.2 µM [cytotoxic, partial curve, poor fit] | Potency [3] 20.9 µM [cytotoxic, partial curve] | Potency [6] 20.9 µM [cytotoxic, single point] | Potency [7] 37.2 µM [cytotoxic, single point] | Potency [10] 20.6 µM [cytotoxic, single point] and 31.6 µM [cytotoxic, single point]

CCCc1cc(=O)[nH]c(=S)[nH]1
inactive: Potency [1] | activity (max response) [10] 3.86% and 14.9%
inconclusive: Potency [3] 23.5 µM [cytotoxic, single point] | Potency [4] 5.26 µM [cytotoxic, full curve] | Potency [9] 0.332 µM [cytotoxic, full curve, poor fit] | Potency [12] 29.1 µM [cytotoxic, single point]
active: Potency [2] 9.35 µM | Potency [11] 14.8 µM

Cn1cc(-c2ccncc2)c(-c2ccc(OCc3ccc4ccccc4n3)cc2)n1
active: Potency [1] 7.42 µM | Potency [5] 14.8 µM | Potency [8] 8.33 µM
inconclusive: Potency [11] 9.35 µM [cytotoxic, full curve] | Potency [7] 33.2 µM [cytotoxic, single point] | Potency [10] 25.1 µM [cytotoxic, single point] | Potency [12] 17.8 µM [cytotoxic, partial curve]
inactive: Potency [2] | Potency [9]

NC(=O)[C@H]1CCS[C@@H]2C[C@]3(CCCN3C(=O)Cc3ccc(NC(=O)COc4ccc(Cl)cc4Cl)cc3)C(=O)N12
active: Potency [1] 2.91 µM | Potency [8] 1.48 µM | Potency [11] 1.17 µM | Potency [7] 1.86 µM
inconclusive: Potency [2] 2.34 µM [cytotoxic, full curve] | Potency [3] 4.67 µM [cytotoxic, full curve] | Potency [4] 0.66 µM [cytotoxic, full curve] | Potency [6] 1.66 µM [cytotoxic, full curve] | Potency [9] 0.741 µM [cytotoxic, full curve] | Potency [10] 3.55 µM [cytotoxic, full curve]

O=C1CCC[C@@H]2[C@H]3CCC[N+]4([O-])CCC[C@@H](CN12)[C@@H]34 (stereo partly drawn)
active: Potency [2] 8.33 µM | Potency [3] 7.43 µM | Potency [4] 5.9 µM | Potency [9] 7.43 µM
inconclusive: Potency [7] 11.8 µM [cytotoxic, single point]
inactive: Potency [1] | Potency [5] | Potency [12]

CN(C)c1cccc(-c2c3c(=O)n(-c4ccccc4Cl)[nH]c3cc(=O)n2C)c1
inconclusive: Potency [1] 18.6 µM [cytotoxic, partial curve]
active: Potency [2] 0.933 µM | Potency [4] 0.588 µM | Potency [8] 1.17 µM | Potency [7] 0.831 µM

CCN1CCCC1CNC(=O)c1cc(S(=O)(=O)CC)c(N)cc1OC (stereo not drawn)
inactive: activity (max response) [10] 7.57% and -4.85%
inconclusive: Potency [1] 8.33 µM [cytotoxic, single point] | Potency [2] 37.2 µM [cytotoxic, single point] | Potency [4] 37.2 µM [cytotoxic, single point]

COCCOc1nc(-c2ccc(Cl)c(Cl)c2)n(-c2ccc(NC(=O)CCl)cc2)n1
inactive: Potency [2] | Potency [3] | Potency [8] | Potency [11]
active: Potency [1] 1.48 µM | Potency [10] 4.47 µM | Potency [12] 0.199 µM
